From paper PMC6919601, “Identification of Plasmodium dipeptidyl aminopeptidase allosteric inhibitors by high throughput screening” (PLoS ONE, 2019)
In all, about 110,000 compounds went through this assay and about 230 (0.21%) showed an effect of 50% or more. The list shows a part of the results.

molecular target: DPAP1 (Plasmodium falciparum, UniProt Q8IIJ9); experiment: primary screen, percent inhibition; read by cleavage of a fluorogenic dipeptide substrate; higher = more effect of the substance; design: species or system P. falciparum D10 trophozoite lysates; single well
Sequence (Q8IIJ9 whole entry, looked up): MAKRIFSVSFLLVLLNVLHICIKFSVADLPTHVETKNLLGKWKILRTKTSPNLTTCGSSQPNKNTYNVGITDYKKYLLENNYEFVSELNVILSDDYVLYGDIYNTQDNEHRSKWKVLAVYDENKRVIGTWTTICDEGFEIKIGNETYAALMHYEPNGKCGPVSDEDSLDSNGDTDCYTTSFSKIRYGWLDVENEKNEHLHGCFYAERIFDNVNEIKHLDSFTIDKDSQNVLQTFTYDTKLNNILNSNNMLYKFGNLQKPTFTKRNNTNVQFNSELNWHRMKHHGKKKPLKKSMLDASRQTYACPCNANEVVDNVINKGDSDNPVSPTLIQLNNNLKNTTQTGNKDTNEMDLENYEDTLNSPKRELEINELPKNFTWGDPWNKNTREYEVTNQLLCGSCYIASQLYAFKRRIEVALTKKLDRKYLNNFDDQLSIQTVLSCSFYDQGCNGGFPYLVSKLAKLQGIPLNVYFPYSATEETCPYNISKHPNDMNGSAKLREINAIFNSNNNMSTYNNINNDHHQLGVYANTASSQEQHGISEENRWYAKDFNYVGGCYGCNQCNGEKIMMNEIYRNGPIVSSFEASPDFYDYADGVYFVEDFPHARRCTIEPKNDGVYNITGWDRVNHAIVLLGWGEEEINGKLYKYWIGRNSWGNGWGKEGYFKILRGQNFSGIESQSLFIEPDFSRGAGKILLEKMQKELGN
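Further: 30 min substrate incubation versus DMSO and 10 µM JCP410 controls.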

SMILES	% Inhibition @ 10 uM [%]
CC1CN(C(=O)Cn2cc(S(=O)(=O)Cc3ccccc3Cl)c3ccccc32)CC(C)O1 (stereo not drawn)	1.66
O=C1NN=C(Cc2ccccc2)C1c1ccccc1 (stereo not drawn)	-1.65
COCCNc1nc2c(S(=O)(=O)c3ccccc3)nnn2c2ccccc12	-10.5
CC(CN(C)CCN(C)C)c1ccccc1 (stereo not drawn)	-2.02
O=[N+]([O-])c1ccc(N2CCN(Cc3ccc(Cl)cc3Cl)CC2)cc1	1.55
CC(C)(CO)Nc1cnc(O)nc1O	0.032
CC1CCCCN1C(=O)c1cc2nc(-c3cccs3)cc(C(F)(F)F)n2n1 (stereo not drawn)	-1.99
O=C1CC(c2cccc(Oc3ccccc3)c2)C2=C(CC(c3cccs3)CC2=O)N1 (stereo not drawn)	-2.24
CCCOc1cccc(OCC(=O)Nc2ccc(Br)cc2)c1	3.66
Cc1cccn2c(=O)c3cc(C(=O)NC4CCCCC4)c(=N)n(CCN4CCOCC4)c3nc12	1.97
O=C(O)Cn1c(SCc2ccccc2)nc2ccccc21	4.66
Cc1ccc(CNCc2c(C(=O)O)n(Cc3ccc(Cl)cc3)c3ccccc23)o1	0.335
COCCNc1ncnc2c1cnn2-c1ccc(C)cc1C	8.64
Cn1c(NC(=O)Cn2nc(C(F)(F)F)cc2C2CC2)nc2ccccc21	-0.545
COc1ccc(-n2cc(Cl)nc(N3CCOCC3)c2=O)cc1	1.43
C=CCn1c(=O)c(C(=O)Nc2nccs2)c(O)c2ccccc21	-1.96
COC(=O)c1c[nH]n2c(NC3CCCCC3)c(-c3cccc(C)c3)nc12	5.89
CC(C)C[C@H](NC(=O)c1ccc(-c2ccccc2Cl)c(Cl)c1)C(=O)NCC#N	-3.48
Cc1ccc2c(c1)C(=O)N(Cc1ccc3c(c1)OCO3)C2=O	-10.3
CCOc1ccc(NC(=O)CCC2CCCC2)cc1	7.48
OC(CN1CCCCC1)Cn1c2c(c3ccccc31)CCCC2 (stereo not drawn)	3.32
c1ccc2c(CNc3ccc4c(c3)OCO4)c3ccccc3cc2c1	-3.6
COc1ccc(CCNC(=O)CN(C)S(=O)(=O)c2ccc(Br)s2)cc1OC	-1.29
CCOC(=O)N1CCC(NC(C)c2cccc3ccccc23)CC1 (stereo not drawn)	0.472
COc1ccc(OC)c(S(=O)(=O)Nc2cc(OC)c(Cl)cc2OC)c1	5.03
O=C(NC1CCCC1)c1ccc(CS(=O)c2ccc(Cl)cc2)o1 (stereo not drawn)	-4.96

SMILES	% Inhibition @ 10 uM [%]
CCN(CC)c1ccc(NC(=O)COc2ccc(C)cc2)c(C)c1	3.48
COc1cc(Cc2nnc(C(=O)NCCC(C)C)o2)cc(OC)c1OC	0.454
CCOC(=O)C1=CN(C(C)C)C=C(C(=O)OCC)C1c1ccc(OC)c(Br)c1	-5.05
Cc1cc(=O)n2nc(N3CCCC(C(=O)NCc4ccccc4Cl)C3)sc2n1 (stereo not drawn)	-2
Cc1ccc2nc(-c3ccc(NC(=O)/C=C\C(=O)O)cc3)sc2c1	1.64
Cc1ccc(S(=O)(=O)NCc2ccc(C(=O)N3CCN(c4ccccn4)CC3)cc2)cc1	-3.35
COc1ccc2[nH]c(C(=O)O)c(CCC(=O)O)c2c1	0.0539
COc1ccc(Br)cc1/C=C/C(=O)N1CCN(c2ccc([N+](=O)[O-])cc2Cl)CC1	3.24
COc1ccccc1CN(Cc1ccccc1)CC1CCCCC1=O (stereo not drawn)	-0.807
COc1ccccc1-c1c(C)nn2c(SCC(=O)NCCN(C)C)cc(C)nc12	-7.22
N#Cc1nc(/C=C/c2ccc(F)cc2)oc1N1CCCC1	2.54
CC(C)c1ccccc1NC(=O)c1ccncc1	2.43
CC(=O)N1CCC(N2CCN(c3ccccc3F)CC2)CC1	4.51
CC(C)OCCCNC(=O)c1cc(Sc2ccc(F)cc2)nc2ccccc12	4.36
COc1ccc(CNS(=O)(=O)c2ccc3[nH]c4c(c3c2)CCCCC4)cc1	2.52
Nc1ncc(Br)cc1S(=O)(=O)NCCC(=O)NCc1ccccn1	5.53
CCCC1=NN(C(=O)c2ccccc2)C(O)(C(F)(F)F)C1 (stereo not drawn)	7.16
COc1ccc(C(=O)NCc2ccc(Cl)c(Cl)c2)cc1	-1.61
COc1cc(CN2CCN(Cc3ccc4ccccc4c3)CC2)cc2c1OCO2	-5.3
CC(C)N1CC2=C(OC(N)=C(C#N)C2c2ccc(F)cc2)/C(=C/c2ccc(F)cc2)C1 (stereo not drawn)	-0.759
Cc1ccc(C(=O)O/N=C(\N)c2ccccn2)cc1Cl	-6.86
O=C(O)C#CCN1C(=O)c2ccccc2C1=O	6.24
Cc1ccc2oc(=O)c3cc(C(=O)N4CCc5ccccc5C4)sc3c2c1	-6.23
COc1cc2c(cc1/C=C1/S/C(=N\c3ccccc3)N(Cc3cccnc3)C1=O)OCO2	-11
COc1ccc(-c2cc(C(=O)NCc3cccnc3)[nH]n2)cc1	0.44
CC(C)(C)C(/C=C/c1ccc(Cl)cc1Cl)n1nnnc1CN1CCOCC1 (stereo not drawn)	-1.63

SMILES	% Inhibition @ 10 uM [%]
CC(C)C[C@H](N[C@@H](C(=O)NC(C)C)c1ccc(-c2ccc(S(C)(=O)=O)cc2)cc1)C(=O)NCC#N	0.173
COCCNS(=O)(=O)c1cc(-c2onc(C)c2C)ccc1OC	5.5
O=C(CCn1cccn1)NC1CCCc2ccccc21 (stereo not drawn)	-3.41
COc1ccc(C2N3CCCN23)cc1Br (stereo not drawn)	-6.67
COC(=O)c1c(NC(=O)Cc2coc3cc(C)cc(C)c23)sc2c1CCCC2	4.18
Cc1c(Br)c(C(=O)NC23CC4CC(CC(C4)C2)C3)nn1C	2.39
N#C/C(=C\c1ccco1)c1nc(-c2ccc(Cl)c(Cl)c2)cs1	4.12
CC(C)C(=O)NCCc1nc2ccccc2n1Cc1ccccc1	3.24
CCOc1ccc(NC(=O)CSc2nc3ccccc3s2)cc1	-6.35
CCOC(=O)/C(C#N)=C/c1c(Oc2ccccc2OC)nc2c(C)cccn2c1=O	-5.1
Nc1nonc1C(=O)NCCNCc1cccc(OCc2ccc(Cl)cc2)c1	3.36
COc1ccc(/C=C/C2=NC(=C\c3cccc(OC)c3OC)/C(=O)O2)cc1	5.79
Cc1nc(O)nc(O)c1CCOc1ccccc1	4.19
CCOc1ccc(C=C2C(=O)NC(=S)NC2=O)cc1	1.91
CCOc1ccccc1NC(=O)c1ccccc1C	0.135
c1ccc(C2=C(CN3CCCCC3)C(c3ccccc3)c3ccccc3O2)cc1 (stereo not drawn)	-2.63
CCOc1ccccc1-n1nnc(-c2nc(-c3ccc(OC)cc3)no2)c1N	1.13
O=C1CCCC2=C1C(c1cccc(O)c1)C1=C(CCCC1=O)O2	-9.12
C#CCN1C(=O)S/C(=C/c2ccc(OCC(N)=O)c(OC)c2)C1=O	-2.46
N#Cc1c(/N=C/c2ccccc2)sc2c1CCCC2	13.2
CCc1nc(N2CCCC2)ncc1C(=O)O	-1.11
CCN(CCCNC(=O)C1CCN(S(=O)(=O)c2cccc3nonc23)CC1)Cc1ccccc1	-0.0508
CCc1cc(CC#N)c(S(=O)(=O)CC)s1	-2.62
COc1ccc(CN2CCN(Cc3cc(OC)ccc3OC)CC2)cc1	2.37
Cc1cc(/C=C2\SC(=O)N(CC(=O)O)C2=O)c(C)n1-c1ccc(C(C)(C)C)cc1	-3.41
S=C1C=C(c2ccccc2)Sc2ccccc2N1	-1.43

SMILES	% Inhibition @ 10 uM [%]
Cc1cc(OCC(=O)O)cc(C)c1Cl	4.1
O=C(CCCCN1CCCCC1)Nc1nc(-c2ccccc2)cs1	-4.24
C/C(CCC1CC(C)OC1=O)=N\NC(N)=S (stereo not drawn)	-1.6
CCNC(=O)/C(=C\c1ccc2c(c1)OCO2)NC(=O)c1ccccc1Cl	-0.941
O=C(CSc1nc2c(c(=O)n1Cc1ccccc1)SCC2)N1CCOCC1	0.842
Cc1nc([N+](=O)[O-])cn1-c1cccc(O)c1	-5.68
COc1ccc2nc(O)c3c(c2c1)OC(C)(C)C=C3	-2.42
CN(Cc1ccccc1)Cc1ccc(O)cc1	-1.78
O[C@]12CCCC[C@@H]1[C@@H](c1ccccc1Cl)NCC2	4.73
Cc1cc(-c2ccc(C)c(S(=O)(=O)N(Cc3ccccc3)C(C)(C)C)c2)on1	-5.5
COc1cc(S(=O)(=O)Nc2ccccn2)ccc1Br	3.36
CC(=O)c1cccc(NC(=O)c2cnn(-c3ccccc3)c2-c2ccccc2)c1	-3.71
CCOC(=O)N1CCC(N2CCN(c3ccc(OC)cc3)CC2)CC1	3.48
CC(CCNS(=O)(=O)c1csc(C(N)=O)c1)N1CCCCCC1 (stereo not drawn)	0.00978
Cc1nc2sccn2c(=O)c1S(=O)(=O)NCCN1CCOCC1	-0.822
O=C(CN(c1ccc(F)cc1)S(=O)(=O)c1ccc2c(c1)OCCO2)NCc1cccnc1	-1.51
COc1ccc(Cc2nnc(NCc3ccco3)nc2O)cc1	-2.04
COc1cc2c(cc1OC)C(c1ccc3c(c1)OCO3)CC(=O)N2 (stereo not drawn)	1.72
CNCCOC(c1ccccc1)c1ccccc1C(C)(C)C (stereo not drawn)	-3.77
CCOc1cccc(C2c3c(oc4ccccc4c3=O)C(=O)N2c2ccccn2)c1 (stereo not drawn)	-5.54
Cc1nn(-c2ccccc2)c(O)c1/C=N/C1CCCCC1	0.685
O=C(Nc1nonc1N1C(=O)c2ccccc2C1=O)c1ccccc1Cl	-3.75
CCOC(=O)c1cnn2c1NC(c1ccc(Cl)cc1)CC2C(F)(F)F (stereo not drawn)	3.35
C=CCN1C(=O)N/C(=C/c2cn(Cc3ccccc3F)c3ccccc23)C1=O	3.9
